Laboratory results taken from PubChem BioAssay AID1645887 (National Center for Advancing Translational Sciences (NCATS), 2021).
“And” between values parts separate entries of the source, which are not always exact repeats. Equal entries are not always repeated. The campaign covered roughly 16,000 compounds. About 40 (0.2%) were called active. Roughly 1% stayed inconclusive and do not appear here. Calls follow the shape of the dose curve; as a rule, active = well fitted activation curve with a large enough effect; inconclusive = small, poorly fitted or top-dose-only effect, or another doubt; inactive = no such curve, though single readings can be large or run the other way. This is one part of the list.

target: Rap guanine nucleotide exchange factor 4 (Homo sapiens) (UniProt Q8WZA2); assay: Validation qHTS for agonist of cAMP-regulated guanine nucleotide exchange factor 4 (EPAC2); settings: EPAC2 Rap1B BODIPY-GDP exchange, fluorescence; activation: stronger effect = higher value;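 also: exchange makes BODIPY-GDP fluorescence drop when released from Rap1B; series mostly up to about 150 µM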
Outline: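 Fluorescent exchange assay: 100 nM EPAC2 with 250 nM RAP1B-BODIPY-GDP and 50 uM GDP; compound added, 5 min at room temperature, then read (ex 480/em 540 nm) every 5 min for 30 min. Normalized to 6.5 mM cAMP agonist control.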
% is scaled to controls: 0 for no effect and ±100 for the full control effect.

Chain of UniProt Q8WZA2 (Q8WZA2 whole entry, looked up): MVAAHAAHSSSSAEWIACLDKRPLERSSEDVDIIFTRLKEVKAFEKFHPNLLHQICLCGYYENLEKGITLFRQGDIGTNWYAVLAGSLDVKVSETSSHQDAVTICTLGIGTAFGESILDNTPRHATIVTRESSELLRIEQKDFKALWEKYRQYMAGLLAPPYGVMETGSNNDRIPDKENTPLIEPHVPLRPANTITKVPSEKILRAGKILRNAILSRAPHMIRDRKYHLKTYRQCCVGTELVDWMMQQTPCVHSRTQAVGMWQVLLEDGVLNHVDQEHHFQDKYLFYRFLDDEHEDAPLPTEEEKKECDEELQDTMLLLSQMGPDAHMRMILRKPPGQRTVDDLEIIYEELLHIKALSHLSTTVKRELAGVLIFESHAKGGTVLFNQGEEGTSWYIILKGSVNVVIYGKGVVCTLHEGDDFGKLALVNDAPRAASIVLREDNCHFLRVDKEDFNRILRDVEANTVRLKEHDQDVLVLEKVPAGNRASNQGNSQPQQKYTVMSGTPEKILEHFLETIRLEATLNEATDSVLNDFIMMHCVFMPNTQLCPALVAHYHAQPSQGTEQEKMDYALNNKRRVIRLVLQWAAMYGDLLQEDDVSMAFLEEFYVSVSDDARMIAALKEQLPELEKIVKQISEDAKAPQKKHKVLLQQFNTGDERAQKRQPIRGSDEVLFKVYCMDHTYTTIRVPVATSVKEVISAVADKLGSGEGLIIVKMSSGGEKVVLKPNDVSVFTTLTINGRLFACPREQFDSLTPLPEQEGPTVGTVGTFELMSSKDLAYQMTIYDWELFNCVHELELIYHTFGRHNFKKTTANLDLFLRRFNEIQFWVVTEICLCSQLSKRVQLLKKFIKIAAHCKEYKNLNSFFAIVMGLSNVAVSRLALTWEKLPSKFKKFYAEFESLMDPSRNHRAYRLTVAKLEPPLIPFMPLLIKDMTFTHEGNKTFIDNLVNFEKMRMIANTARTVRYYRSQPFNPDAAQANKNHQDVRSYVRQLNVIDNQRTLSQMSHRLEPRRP

activation, inactive:
CCNc1ncc2nc(-c3ccc(F)cc3)c(=O)n(C[C@H]3CCCO3)c2n1 -10.6%, CN(C)c1ccc(-c2nc(NCCc3cnc[nH]3)c3ccccc3n2)cc1 -13.4%, O=C(Nc1ccccc1)N1CCC2(CC1)CCN(C(=O)c1ccncc1)CC2 -18.7%, CC(Oc1ccccc1)C(=O)NC1C(=O)N2C(C(=O)O)C(C)(C)S[C@@H]12 (some centres undefined) -21.3%, CN(C)c1ccc(-c2ccc3ncnc(NC4CC4)c3c2)cc1 -15%, COc1ccc(-n2c(CCNC(=O)c3ccccc3C(F)(F)F)nnc2SC)cc1 -4.98%, COc1ccccc1CNc1ncncc1-c1ccoc1 -16.4%, Cc1cnc(CNc2ccnc(-c3c(C)noc3C)n2)cn1 -29.7%, O=C(NCCN1CCOCC1)c1cnn(-c2nccc(-c3cccs3)n2)c1C1CC1 -14.5%, O=c1c(O)c(-c2ccc(O)cc2)oc2cc(O)cc(O)c12 -47.6% and -11.5%, CCC(=O)N[C@@H]1c2ccccc2C2(CCN(Cc3cnc(N(C)C)s3)CC2)[C@H]1OC -4.89%, CC(=O)Nc1ccc(OC(=O)c2ccccc2O)cc1 13.5%, COc1cc2nc(N3CCN(C(=O)C4COc5ccccc5O4)CC3)nc(N)c2cc1OC (centres undefined) 0.366% and -47.8%, O=P(O)(O)C(O)(Cn1ccnc1)P(=O)(O)O -2.86%, CC(C)CN1CCCC2(CCN(C(=O)c3cccn3C)CC2)C1 -15.2%, O=C(c1cc(O)c(O)c([N+](=O)[O-])c1)c1ccccc1F -12%, O=c1nc2ccccc2c2n1CC(CN1CCN(c3ccccc3)CC1)N2 (centres undefined) 0.311%, O=c1c(-c2ccccc2)nc2cncnc2n1Cc1ccccc1 -12.4%, O=c1[nH]ccc2c(O)cccc12 -23.1%, CC(C)(CO)[C@@H](O)C(=O)NCCC(=O)O 14.6%, COc1cccc(CN2CCc3nnc(CCc4ccccc4)n3CC2)c1OC -12.3%, Cc1cc(C(C)(C)C)cc(C)c1CC1=NCCN1 1.03% and -7.06% and -20%, CC[C@]1(O)C[C@@H]2CN(CCc3c([nH]c4ccccc34)[C@@](C(=O)OC)(c3cc4c(cc3OC)N(C)C3[C@]45CCN4CC=C[C@](CC)(C45)[C@@H](OC(C)=O)[C@]3(O)C(=O)OC)C2)C1 (some centres undefined) 11.2%, CCN(CCCCOC(=O)c1ccc(OC)c(OC)c1)C(C)Cc1ccc(OC)cc1 (centres undefined) 4.29% and -11.4%, CCC(C)C(=O)OC1CC(C)C=C2C=CC(C)C(CCC3CC(O)CC(=O)O3)C21 (centres undefined) -19.1%, CC(C)(C)CC(C)(C)N=C1Nc2ccc([N+](=O)[O-])cc2N[C@]12C[C@H]1CCCC(=O)N3CC[C@@H](C2)[C@@H]13 -29.7%, COc1cc(C=O)cc(OC)c1[N+](=O)[O-] -39.2%, CCN(CC)CCOCCOC(=O)C1(c2ccccc2)CCCC1 -8.96% [middle of 4 runs], Cc1ncc2c(c1CNC(=O)c1ccccc1F)CCN(C(=O)c1ccc3c(c1)OCCO3)C2 -2.96%, C[C@@H]1C[C@H]2[C@@H]3CCC4=CC(=O)C=C[C@]4(C)[C@@]3(F)[C@@H](O)C[C@]2(C)[C@H]1C(=O)CO -13%, COc1ccc(Oc2ncc3ncc(=O)n(Cc4cccs4)c3n2)cc1 2.47%, COC(=O)N1CCC2(CCN(C(=O)Nc3cccc(F)c3)CC2)CC1 -14.3%, CC(C)C[C@@H](NC(=O)OCC1c2ccccc2-c2ccccc21)C(=O)O -21.2%, O=c1cc(-c2ccc(O)cc2)oc2cc(OC3OC(CO)C(O)C(O)[C@H]3O[C@@H]3OC[C@@](O)(CO)C3O)cc(O)c12 (some centres undefined) -1.25%, COc1ncc2nc(-c3cccs3)c(=O)n(Cc3cccs3)c2n1 1.52%, CCOC(=O)c1c(C)cc(OC)cc1O -20.1%, C[C@]12CCC3c4ccc(O)cc4CCC3C1CCC2=O (some centres undefined) -8.13%, COc1cccc(Nc2ncc3ncc(=O)n(C)c3n2)c1 -13%, CS(=O)(=O)Nc1cccc(-c2cc(NCc3ccccc3)ncn2)c1 -10.2%, C[C@@H]1[C@H](O)[C@@H](C)/C=C/C=C\C=C\C=C\C=C\C=C\C=C\[C@H](O[C@@H]2O[C@H](C)[C@@H](O)[C@H](N)[C@@H]2O)C[C@@H]2O[C@](O)(C[C@@H](O)C[C@@H](O)[C@H](O)CC[C@@H](O)C[C@@H](O)CC(=O)O[C@H]1C)C[C@H](O)[C@H]2C(=O)O (stereo in doubt) -15.7%, Cc1ncnc2nc[nH]c12 -28.5%, Nc1ccccc1N -21.4%, COc1ccccc1-c1cc(=O)c2cccc(OC)c2o1 2.59%, COCC1CCCN(Cc2ccc3c(c2)CN(C(=O)c2sc(C)nc2C)CCO3)C1 (centres undefined) -4.33%, COc1ccc(CCN(C)C(=O)c2cnn(-c3nccc(-c4ccc(C)o4)n3)c2C)cc1OC -10.3%, O=C([C@@H]1CC=C[C@@H]2CCN(C3CCCCC3)C(=O)[C@@H]21)N1CCOCC1 -3.61%, COCCCOc1cc(C[C@@H](C[C@H](N)[C@@H](O)C[C@H](C(=O)NCC(C)(C)C(N)=O)C(C)C)C(C)C)ccc1OC -8.81%, CN(CC(=O)N1CCOCC1)Cc1c(Cl)cccc1NC(=O)c1ccccc1 -3.61%, CNCCCCOc1ccccc1Cc1ccccc1 -11.2%, C#C[C@]1(OC(C)=O)CC[C@H]2[C@@H]3CCC4=CC(=O)CC[C@@H]4[C@H]3CC[C@@]21C -8.44%, CCCCOC(=O)c1ccc(O)cc1 0.993%, COc1ccccc1CNc1cc(-c2cccc(NS(C)(=O)=O)c2)ncn1 -7.69%, CCCc1nc2c(C)cc(-c3nc4ccccc4n3C)cc2n1Cc1ccc(-c2ccccc2C(=O)O)cc1 -13.9%, CCC(O)c1ccccc1 (centres undefined) -12.4%, COCC(=O)Nc1cc(C(=O)N2CCc3c(Cl)cccc3C2)c2c(c1)nc(-c1ccncc1)n2C 2.57%, O=C(O)Cc1ccc(O)c(O)c1 -5.82% and -2.99%, COc1ccccc1CN1CC[C@@]2(CCCN(C(=O)c3cc(C(F)(F)F)cc(C(F)(F)F)c3)C2)C1 -24.1%, CN(C)CCOc1ccccc1Cc1ccccc1 -23.2%, CN(C)c1ccc(-c2ccc3ncnc(N(C)Cc4ccco4)c3c2)cc1 5.99%, O=C(c1ccncc1)N1CCC2(CCCN(c3cccc(-c4ccccc4)c3)C2)CC1 -1%, COc1ccc(-c2cc(=O)c3c(O)c(OC)c(OC)c(OC)c3o2)cc1OC -14.3%, Cc1[nH]c2ccccc2c1/C=C/c1cnc2ccccc2n1 -17.3%, COC(=O)N1CCC[C@@]2(CCN(C(=O)Nc3ccc(OC)cc3)C2)C1 -14.4%, N=C(N)N1CCc2ccccc2C1 -1.38%, CCn1c(-c2ccccc2F)nc2cc(NC(C)=O)cc(C(=O)N3CCCC3c3nccs3)c21 (centres undefined) -8.5%, CC(NC(=O)c1cccnc1)c1nnc2n1CCN(Cc1ccc(F)cc1F)CC2 (centres undefined) -3.49%, CC(C)c1c(C(=O)N(C)Cc2cccc3ncccc23)cnn1-c1nccc(-c2ccccc2F)n1 3.52%, CC1=CC(=O)c2ccccc2C1=O -29.9%, CC1(C)S[C@@H]2[C@H](NC(=O)COc3ccccc3)C(=O)N2C1C(=O)OCC1CCCCC1 (some centres undefined) -32.4%, CN(C)c1ccc2ccc3cccc4ccc1c2c34 -31.6%, CC(=O)N[C@H]1[C@H]([C@H](O)[C@H](O)CO)OC(C(=O)O)=C[C@@H]1N=C(N)N -8.94%, CCOc1ccc(N=Nc2ccc(N)cc2N)cc1 4.1%, COc1ccccc1CCn1c(=O)c(-c2cccc(F)c2)nc2cncnc21 -7.73%, O=C1CC[C@@]23/C=C/C(=O)NCCCCNCCCNC(=O)/C=C/c4ccc(c2c4)OC3C1 (some centres undefined) 15.3%, CC[N+](CC)(CCNC(=O)C(=O)NCC[N+](CC)(CC)Cc1ccccc1Cl)Cc1ccccc1Cl -4.67% and 0.0845%, O=c1c(CCc2ccccc2)nc2cnc(N3CCOCC3)nc2n1Cc1ccc(F)cc1 -9.78%, CN(C)c1ncc2nc(-c3cccs3)c(=O)n(C)c2n1 12.8%, N=c1ccn2c(n1)OC1C(O)C(CO)OC12 (centres undefined) -16.8% and -9.4%, CCN1CCCC1CNC(=O)c1cnn(-c2nccc(-c3cc4ccccc4o3)n2)c1C (centres undefined) -3.13%, O=C(c1cc(C(F)(F)F)cc(C(F)(F)F)c1)N1CCC2(CC1)CN(Cc1ccccc1)C2 -21.1%, O=C(OCc1ccccc1)c1cccnc1 -14.4%, CC(=O)Oc1cc(C)c(OC(C)=O)c2ccccc12 -9.46%, COc1ccc(-c2nc3cnc(N4CCN(C)CC4)nc3n(CCc3ccccc3)c2=O)cc1 -2.85%, Cc1nc2cnc(Oc3ccccc3)nc2n(C)c1=O 4.42%
